In all, about 360,000 compounds went through this assay and about 740 (0.21%) were called active. The inconclusive results got no clear call from the source; some entries with a clear call stand among them for comparison. The call rests on the fitted dose curve; in most records, active means well fitted inhibition curve with a large enough effect; inconclusive means small, poorly fitted or top-dose-only effect; inactive means no such curve, though single readings can be large or run the other way. Potencies of inconclusive entries are left out as doubtful fits.
These compounds were tested on Plasmodium falciparum AMA1 (3D7) - RON2 peptide interaction (assay: qHTS for Inhibitors of AMA1-RON; Towards Development of Antimalarial Drug Lead: Primary Screen). Conditions: AlphaScreen AMA1-biotinylated RON2 peptide binding; activity change, negative = inhibition: at 58.2 µM (top of the series) unless noted.
Summary of the method: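 AMA1 (3D7) with his tag at 25 nM final met compounds first, then biotinylated RON2 peptide at 25 nM; detection used donor plus acceptor beads, 10 µg/mL apiece, read by AlphaScreen after 30 min at room temperature.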
Further: nearly all actives have a fitted effect of over 45% in size.
Potency means the concentration at half of the fitted maximal effect; tags describe the fitted curve by direction and shape.
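Wherever activity change, negative = inhibition is given: 0% = vehicle wells and -100% = peptide control.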

Row | SMILES | Potency | activity change, negative = inhibition
1 | O=C(NCCCn1ccnc1)C1CC(c2ccccc2Cl)=NO1 (stereo unspecified) | inconclusive [inhibitor, partial curve] | –
2 | CC(OC(=O)/C=C/c1cccs1)C(=O)Nc1ccc(C(N)=O)cc1 (stereo unspecified) | inconclusive [inhibitor, single point] | –
3 | O=C(CN1CCN(Cc2ccc(Cl)cc2)C1=O)NCCCN1CCN(c2ccc(F)cc2)CC1 | – | inactive: -2.79%
4 | O=C(Nc1ccccc1Sc1ccccc1)C1CCCO1 (stereo unspecified) | – | inactive: 2.54%
5 | CCn1cc(S(=O)(=O)Nc2ncccn2)cn1 | – | inactive: -4.87%
6 | N#Cc1ccc(S(=O)(=O)N2CCN(C(=O)c3cn(-c4ccccc4)nc3-c3cccnc3)CC2)cc1 | – | inactive: 17.3%
7 | CCOC(=O)N1CCC(N2CCN(S(=O)(=O)c3ccc(OC)cc3)CC2)CC1 | inconclusive [inhibitor, single point] | –
8 | COc1cccc(CN2CCN(Cc3cccc(Br)c3)CC2)c1OC | inconclusive [inhibitor, partial curve] | –
9 | COc1ccc(C(=O)CSc2nnc(CNc3ccc(C)cc3C)n2Cc2ccco2)cc1 | – | inactive: -29.1%
10 | Cc1ccccc1C(=O)Nc1c(C(=O)N(CCN(C)C)Cc2ccco2)oc2ccccc12 | – | inactive: -5.18%
11 | CCOc1ccc(C(=O)NCC2CCCO2)cc1 (stereo unspecified) | – | inactive: 1.6%
12 | CN(C)c1ccc(CNc2ccc3c(c2)ncn3C(C)(C)C)cc1 | inconclusive [inhibitor, single point] | –
13 | CCOc1cc(/C=C2/SC(=S)N(Cc3ccccc3)C2=O)ccc1O | inconclusive [inhibitor, partial curve] | –
14 | CC(C(=O)O)N1C(=O)/C(=C/C=C/c2ccco2)SC1=S (stereo unspecified) | inconclusive [inhibitor, single point] | –
15 | Cc1ccc(CC(=O)NCc2ccc3c(c2)OCO3)cc1 | inconclusive [inhibitor, single point] | –
16 | COC(=O)C1=C(c2ccc(OCc3ccccc3)cc2)C[C@@H]2CC[C@H]1N2C(=O)NCc1ccc2c(c1)OCO2 | inconclusive [inhibitor, partial curve] | –
17 | Cc1cc2c(cc1C)N(C(=O)CSC1=NCCS1)C(C)(C)c1ssc(=S)c1-2 | inconclusive [inhibitor, partial curve] | –
18 | Cc1csc(=O)n1CC(=O)OC(C)C(=O)Nc1ccc(N(C)C)cc1 (stereo unspecified) | inconclusive [inhibitor, partial curve, poor fit] | –

Row | SMILES | Potency | activity change, negative = inhibition
19 | CCc1ccc(C2c3[nH]c4ccccc4c3CCN2C(=O)CN2CCN(CC)CC2)cc1 (stereo unspecified) | inconclusive [inhibitor, single point] | –
20 | CN(C)c1ccc(N=Nc2ccccc2C(=O)OCC(=O)N2CCCC2)cc1 | inconclusive [inhibitor, single point] | –
21 | COc1ccc(CN2C(=O)c3ccccc3C2=O)cc1C(=O)Nc1ccccc1N1CCOCC1 | inconclusive [inhibitor, partial curve] | –
22 | O=c1[nH]c2ccccc2n1C1CCN(CCCC(c2ccc(F)cc2)c2ccc(F)cc2)CC1 | inconclusive [inhibitor, single point] | –
23 | COc1ccc(C(=O)CSc2nc3ccccc3n2CC(=O)c2ccccc2)cc1 | – | inactive: -5.96%
24 | COC(=O)c1cc(-c2ccc(Br)cc2)n[nH]1 | – | inactive: 2.2%
25 | CCN1CCCc2cc(CN(CCN3CCOCC3)C(=S)Nc3cccc(C)c3)ccc21 | active: 14.1 µM | –
26 | Cc1csc(NC(=O)c2c(-c3c(Cl)cccc3Cl)noc2C)n1 | – | inactive: 2.54%
27 | COCOCCn1cc(CN2CCS(=O)(=O)N(Cc3ccc(-c4cccc(N(C)C)c4)cc3)C(C(C)C)C2=O)nn1 (stereo unspecified) | inconclusive [inhibitor, partial curve] | –
28 | COc1ccc(OCCCC(=O)OC(C)C(=O)Nc2ccccc2[N+](=O)[O-])cc1 (stereo unspecified) | inconclusive [inhibitor, single point] | –
29 | CC(C)n1cnc2c(N(C)c3ccccc3)nc(N(CCN(C)C)Cc3ccccc3)nc21 | inconclusive [inhibitor, single point] | –
30 | O=[N+]([O-])c1ccc2nc(-[n+]3c(-c4ccccc4)cc(-c4ccccc4)cc3-c3ccccc3)[nH]c2c1 | – | inactive: -21.9%
31 | O=C(O)CN(c1ccccn1)S(=O)(=O)c1ccccc1 | inconclusive [inhibitor, full curve, poor fit] | –
32 | COc1ccc(-c2noc(CCCC(=O)Nc3cccnc3)n2)cc1OC | inconclusive [inhibitor, single point] | –
33 | O=[N+]([O-])c1ccccc1NCCOc1ccccc1 | inconclusive [inhibitor, partial curve] | –
34 | CN1CC(c2ccccc2)C(c2ccc(Cl)cc2)=N1 (stereo unspecified) | inconclusive [inhibitor, partial curve] | –
35 | COc1ccccc1N(C)c1cc2c(c3c1ccn3C)C1CCC2O1 (stereo unspecified) | inconclusive [inhibitor, partial curve] | –
36 | O=C1CC(NNc2ccccc2)C(=O)N1c1ccc(N2CCCCC2)cc1 (stereo unspecified) | inconclusive [inhibitor, single point] | –

Reference: PubChem BioAssay AID720542 (National Center for Advancing Translational Sciences (NCATS), 2013)
